Experimental data as given in PubChem BioAssay AID504706 (National Center for Advancing Translational Sciences (NCATS), 2011).
Values joined by “and” are separate entries in the source; they are usually repeats but may differ in a detail not shown here. Equal entries are not always repeated. Among all 320,000 compounds or so, about 200 (0.062%) were called active. The shares of active, inactive and inconclusive entries below differ from those in the screen. The call rests on the fitted dose curve; in most records, active means well fitted activation curve with a large enough effect; inconclusive means small, poorly fitted or top-dose-only effect; inactive means no such curve, though single readings can be large or run the other way. Potencies of inconclusive entries are doubtful fits and often do not repeat.

Assay: qHTS assay for re-activators of p53 using a Luc reporter; further: nearly all actives have a fitted effect of over 45% in size
Conditions: H1299 p53-A138V BP100-luciferase reporter, luminescence, 24 h; series mostly up to 92.2 µM
How it was run: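 H1299 (p53-null), stable ts p53-A138V + BP100-Luc; 1000 cells/well, Opti-MEM/10% FBS; cpd 4 pt, 1:5; 24 h, 37 deg C, 5% CO2; detection reagent 10 min RT; luminescence.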
Potency means the concentration at half of the fitted maximal effect; tags describe the fitted curve by direction and shape.

Structure (SMILES) | Potency
O=C(O/N=C(\c1ccccc1)c1ccccn1)c1ccc(Cl)c(Cl)c1 | inactive
CN1CCN(C(=O)CN(C2CCCCC2)S(=O)(=O)c2ccc(Br)cc2)CC1 | inconclusive: 56.2 µM [activator, partial curve, poor fit]
N/C(Cc1cccc2ccccc12)=N\OC(=O)Cc1cccs1 | inconclusive: 50.1 µM [activator, partial curve, poor fit]
COc1ccc(N2CCN(C(=O)CSc3ncccc3-c3nc4ccccc4[nH]3)CC2)cc1 | inconclusive: 70.8 µM [activator, single point]
Cc1cc(=O)[nH]c(N/N=C/c2ccc(-c3ccc(F)cc3)o2)n1 | inconclusive: 50.1 µM [activator, single point]
CN1/C(=C\C(=O)c2cccc([N+](=O)[O-])c2)Sc2ccccc21 | inactive
CCN1CCN(C(=O)c2cc3ccc(OC)cc3[nH]2)CC1 | inconclusive: 11.2 µM [activator, partial curve, poor fit]
CCCn1c(C(C)Nc2nc(-c3ccc(Cl)c([N+](=O)[O-])c3)cs2)nc2ccccc21 (stereo not drawn) | inactive
S=C(Nc1ccccn1)c1ccccn1 | inconclusive: 3.98 µM [activator, full curve, poor fit] and inconclusive: 56.2 µM [activator, partial curve, poor fit]
CCOC(=O)c1c(C)nc2c(c1C)c(=O)oc1ccccc12 | inconclusive: 50.1 µM [activator, partial curve, poor fit]
COc1ccc(/C(N)=N/OC(=O)c2ccc(Br)o2)cc1 | inconclusive: 6.31 µM [activator, full curve, poor fit]
CN(C)c1ccc(C(=S)Nc2ccccc2)cc1 | inconclusive: 56.2 µM [activator, partial curve, poor fit]
COc1ccc(CCNC(=O)c2nonc2N)cc1 | inconclusive: 7.94 µM [activator, full curve, poor fit]
CC(=O)C1=C(O)C(=O)N(c2cc(C(C)(C)C)on2)C1c1ccc(C(C)C)cc1 (stereo not drawn) | inactive
Cc1ccc2cc3c(NC(=O)c4ccco4)nn(C)c3nc2c1 | inactive
O=C1CC(O)(C(F)(F)F)Oc2c1ccc1ccccc21 (stereo not drawn) | inconclusive: 50.1 µM [activator, partial curve, poor fit]
COc1ccc(N2C(=O)/C(=C/c3ccc([N+](=O)[O-])cc3)N=C2C)c(OC)c1 | inactive
C=CCc1c(C)[nH]c2ccc(C)cc2c1=O | inconclusive: 11.2 µM [activator, full curve, poor fit]
